The text below walks through data of US20250066451A1 (SWEDISH ORPHAN BIOVITRUM AB PUBL, published 2025).

The target in experiment [1] is T1, Human IL-1R-I-Fc (Creative BioMart cat. no. IL1RI-771H) (human, UniProt P14778 18-332, limits assumed).
T1 construct: Bought protein; also called hIL-1R-I-Fc; hIL-1RI-Fc; not shown: Fc part of the bought fusion
T1 sequence (looked up): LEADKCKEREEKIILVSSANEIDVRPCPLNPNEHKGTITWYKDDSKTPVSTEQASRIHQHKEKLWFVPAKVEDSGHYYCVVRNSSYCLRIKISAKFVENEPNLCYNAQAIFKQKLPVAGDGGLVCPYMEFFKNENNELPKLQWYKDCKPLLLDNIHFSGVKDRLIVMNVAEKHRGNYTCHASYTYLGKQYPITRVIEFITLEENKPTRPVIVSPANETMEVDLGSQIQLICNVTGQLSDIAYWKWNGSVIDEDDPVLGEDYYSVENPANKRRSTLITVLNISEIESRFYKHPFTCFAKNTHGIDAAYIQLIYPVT
Put plainly: ELISA titration; Z-ABD periplasmic extract, hIL-1R-I-Fc 100-0.01 nM. In general terms: An ELISA detects its analyte on a solid surface through an enzyme-linked reagent.

The target in the next experiment is T2, human IL-1R-I (human, UniProt P14778 18-332, limits assumed).
T2 construct: bought recombinant protein; also called hIL-1R-I; hIL-1RI
T2 sequence (looked up): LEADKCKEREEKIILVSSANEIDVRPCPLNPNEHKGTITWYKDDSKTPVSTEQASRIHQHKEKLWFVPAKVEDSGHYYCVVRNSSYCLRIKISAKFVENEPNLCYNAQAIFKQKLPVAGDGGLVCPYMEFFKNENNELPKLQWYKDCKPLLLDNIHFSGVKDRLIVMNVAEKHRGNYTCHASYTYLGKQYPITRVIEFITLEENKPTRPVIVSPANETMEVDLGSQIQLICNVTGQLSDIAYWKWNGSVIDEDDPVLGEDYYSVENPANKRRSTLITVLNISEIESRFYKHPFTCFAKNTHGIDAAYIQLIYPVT
Put plainly: SPR; hIL-1R-I immobilized, His6-Z injected.

For a further experiment, the target named is T3, IL-1R-I on TF-1 cells (UniProt P14778 18-569, limits assumed).
T3 sequence (looked up): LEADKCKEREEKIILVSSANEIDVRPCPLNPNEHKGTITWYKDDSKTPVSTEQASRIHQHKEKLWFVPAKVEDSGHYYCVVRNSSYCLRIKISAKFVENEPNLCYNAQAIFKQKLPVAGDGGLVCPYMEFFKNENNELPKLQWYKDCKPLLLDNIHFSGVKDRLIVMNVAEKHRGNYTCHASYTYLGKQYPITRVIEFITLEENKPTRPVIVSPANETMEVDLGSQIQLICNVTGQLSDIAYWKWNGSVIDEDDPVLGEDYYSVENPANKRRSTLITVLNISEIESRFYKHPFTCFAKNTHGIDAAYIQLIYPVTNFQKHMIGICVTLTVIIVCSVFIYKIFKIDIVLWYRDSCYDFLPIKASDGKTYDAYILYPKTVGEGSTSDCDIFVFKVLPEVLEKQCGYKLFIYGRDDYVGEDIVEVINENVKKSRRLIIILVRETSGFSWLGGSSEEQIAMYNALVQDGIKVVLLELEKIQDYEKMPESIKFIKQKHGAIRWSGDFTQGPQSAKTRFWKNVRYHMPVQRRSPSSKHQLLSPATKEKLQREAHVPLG
Put plainly: cell-based or functional assay.

B1: Z12974 as Z-ABD fusion (periplasmic extract) (designed binder)
chain: AQHDEALEVDAKYAKEADHAQQEIFALPNLTRRQYTAFIIKLLDDPSQSSELLSEAKKLNDSQAPKVDYVLAEAKVLANRELDKYGVSDYYKNLINNAKTVEGVKALIDEILAALPYVPG
For B1, the EC50 in experiment [1] turned out to be 0.21 nM.

B2: Z12975 as Z-ABD fusion (periplasmic extract) (designed binder)
chain: AQHDEALEVDAKYAKEAHNAQQEIYRLPNLTRRQYTAFIIKLLDDPSQSSELLSEAKKLNDSQAPKVDYVLAEAKVLANRELDKYGVSDYYKNLINNAKTVEGVKALIDEILAALPYVPG
B2 registered an EC50 in experiment [1] of 0.26 nM.

B3: Z18832 (His6-Z) (designed binder)
chain: MGSSHHHHHHLQVDAKYAKEVEEIQMEIFHLPNLTRRQYTAFIRKLLDDPSQSSELLSEAKKLNDSQAPKVD
In the experiment with human IL-1R-I, B3 yielded a Kd of 0.12 nM, a dissociation rate constant (koff) of 0.007 s⁻¹ and a kon of 5.9e+07 M⁻¹ s⁻¹. Also, in the experiment with IL-1R-I on TF-1 cells, the “IC50, TF-1 cell assay (IL-1β neutralization)” value (“IC50, TF-1 cell assay” for short) was 0.5 nM.

B4: Z18754 (His6-Z) (designed binder)
chain: MGSSHHHHHHLQVDAKYAKEVEEIQMEIFRLPNLTRRQYTAFIRKLLDDPSQSSELLSEAKKLNDSQAPKVD
For B4, in the experiment with human IL-1R-I, the Kd is 0.086 nM, the off-rate (koff) amounted to 0.006 s⁻¹ and the kon was 7e+07 M⁻¹ s⁻¹. In addition, in the experiment with IL-1R-I on TF-1 cells, the “IC50, TF-1 cell assay” value came out at 0.6 nM.

B5: Z15975 (His6-Z) (designed binder)
chain: MGSSHHHHHHLQVDAKYAKEVETAQMEIFVLPNLTRKQYTAFIRKLLDDPSQSSELLSEAKKLNDSQAPKVD
B5: in the experiment with human IL-1R-I, binding was put at a Kd of 0.71 nM, the koff came to 0.029 s⁻¹ and the kon worked out at 4.1e+07 M⁻¹ s⁻¹. Also, the “IC50, TF-1 cell assay” value with IL-1R-I on TF-1 cells worked out at 3.3 nM.

B6: Z18834 (His6-Z) (designed binder)
chain: MGSSHHHHHHLQVDAKYAKEVEEIQMEIFGLPNLTRRQYTAFIRKLLDDPSQSSELLSEAKKLNDSQAPKVD
In the experiment with human IL-1R-I, B6 had a Kd of 0.14 nM, a koff of 0.008 s⁻¹ and a kon of 5.8e+07 M⁻¹ s⁻¹. In the experiment with IL-1R-I on TF-1 cells, the “IC50, TF-1 cell assay” value is 0.5 nM.

B7: Z18760 (His6-Z) (designed binder)
chain: MGSSHHHHHHLQVDAKYAKETEAVQMEIFALPNLTRRQYTAFIRKLLDDPSQSSELLSEAKKLNDSQAPKVD
In the experiment with human IL-1R-I, B7 gave a dissociation constant Kd of 0.21 nM, a koff of 0.0027 s⁻¹ and a kon of 1.3e+07 M⁻¹ s⁻¹. Besides, the “IC50, TF-1 cell assay” value with IL-1R-I on TF-1 cells worked out at 0.9 nM.

B8: Z15934 (His6-Z) (designed binder)
chain: MGSSHHHHHHLQVDAKYAKEVTVAQMEIFALPNLTRKQYTAFIRKLLDDPSQSSELLSEAKKLNDSQAPKVD
Take B8: in the experiment with human IL-1R-I, the Kd amounted to 0.75 nM, the koff amounted to 0.011 s⁻¹ and the kon worked out at 1.4e+07 M⁻¹ s⁻¹. Further, in the experiment with IL-1R-I on TF-1 cells, the “IC50, TF-1 cell assay” value turned out to be 6.4 nM.

B9: Z18814 (His6-Z) (designed binder)
chain: MGSSHHHHHHLQVDAKYAKEVEEIQMEIFALPNLTRRQYTAFIRKLLDDPSQSSELLSEAKKLNDSQAPKVD
In the experiment with human IL-1R-I, B9 registered a Kd of 0.15 nM, a koff of 0.0044 s⁻¹ and a kon of 3e+07 M⁻¹ s⁻¹. In the experiment with IL-1R-I on TF-1 cells, the “IC50, TF-1 cell assay” value worked out at 0.4 nM.

B10: Z18813 (His6-Z) (designed binder)
chain: MGSSHHHHHHLQVDAKYAKEVEEIQMEIFALPNLTRKQYTAFIRKLFDDPSQSSELLSEAKKLNDSQAPKVD
For B10, in the experiment with human IL-1R-I, the Kd is 0.2 nM, the koff came to 0.0039 s⁻¹ and the kon is 2e+07 M⁻¹ s⁻¹. Besides, the “IC50, TF-1 cell assay” value with IL-1R-I on TF-1 cells turned out to be 1.2 nM.

B11: Z18831 (His6-Z) (designed binder)
chain: MGSSHHHHHHLQVDAKYAKEIEEVQMEIFYLPNLTRRQYTAFIRKLLDDPSQSSELLSEAKKLNDSQAPKVD
In the experiment with human IL-1R-I, B11 registered an equilibrium dissociation constant (Kd) of 0.13 nM, a dissociation rate constant (koff) of 0.0053 s⁻¹ and an association rate constant (kon) of 4e+07 M⁻¹ s⁻¹. The “IC50, TF-1 cell assay” value with IL-1R-I on TF-1 cells amounted to 0.4 nM.

As a reminder, the EC50 is the concentration needed to bring the measured effect to its halfway point. A lower EC50 goes with higher potency in that assay. A word on the Kd: it is the free concentration of one partner at which half of the binding sites on the other are occupied at equilibrium, for simple one-to-one binding. The term koff denotes the first-order rate constant of dissociation. A lower koff goes with a long-lived complex. The kon is a measure of how fast the partners come together. Read a high kon as fast association.
